Positions count from the first letter of the chain named. The list shows a part of the results.
T1: RBFOX1 RRM (Homo sapiens, UniProt Q9NWB1 109-208)
T1 sequence: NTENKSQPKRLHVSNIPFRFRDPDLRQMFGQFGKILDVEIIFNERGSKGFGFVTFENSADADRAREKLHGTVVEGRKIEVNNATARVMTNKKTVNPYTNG

B1: GCAUCAC (DNA:RNA)
RNA: GGGAGACCGGAAUUCAGAUUGUCCGCAUCACUUAAAUCCCGUCGUAGCCACCA
DNA 1: CAATCTGAATTCCGGTCTCCC
DNA 2: TGGTGGCTACGACGGGATT
B2: CAUACCU (DNA:RNA)
RNA: B1 RNA with G25C, C26A, A27U, U28A, A30C, C31U
DNA 1: CAATCTGAATTCCGGTCTCCC
DNA 2: TGGTGGCTACGACGGGATT
B3: AUCUGUU (DNA:RNA)
RNA: B1 RNA with G25A, C26U, A27C, C29G, A30U, C31U
DNA 1: CAATCTGAATTCCGGTCTCCC
DNA 2: TGGTGGCTACGACGGGATT
B4: AGGAAGG (DNA:RNA)
RNA: GGGAGACCGGAAUUCAGAUUGUCCAGGAAGGUUAAAUCCCGUCGUAGCCACCA
DNA 1: CAATCTGAATTCCGGTCTCCC
DNA 2: TGGTGGCTACGACGGGATT
B5: CGCUCAU (DNA:RNA)
RNA: B1 RNA with G25C, C26G, A27C, C31U
DNA 1: CAATCTGAATTCCGGTCTCCC
DNA 2: TGGTGGCTACGACGGGATT
B6: UAUUGUA (DNA:RNA)
RNA: B1 RNA with G25U, C26A, A27U, C29G, A30U, C31A
DNA 1: CAATCTGAATTCCGGTCTCCC
DNA 2: TGGTGGCTACGACGGGATT
B7: AUGCACG (DNA:RNA)
RNA: B4 RNA with G26U, A28C, G30C
DNA 1: CAATCTGAATTCCGGTCTCCC
DNA 2: TGGTGGCTACGACGGGATT
B8: UUAAUAC (DNA:RNA)
RNA: B1 RNA with G25U, C26U, U28A, C29U
DNA 1: CAATCTGAATTCCGGTCTCCC
DNA 2: TGGTGGCTACGACGGGATT
B9: CUUUGAG (DNA:RNA)
RNA: B1 RNA with G25C, C26U, A27U, C29G, C31G
DNA 1: CAATCTGAATTCCGGTCTCCC
DNA 2: TGGTGGCTACGACGGGATT
B10: UGUUUGC (DNA:RNA)
RNA: B4 RNA with A25U, G27U, A28U, A29U, G31C
DNA 1: CAATCTGAATTCCGGTCTCCC
DNA 2: TGGTGGCTACGACGGGATT
B11: CGACUAG (DNA:RNA)
RNA: B4 RNA with A25C, G27A, A28C, A29U, G30A
DNA 1: CAATCTGAATTCCGGTCTCCC
DNA 2: TGGTGGCTACGACGGGATT
B12: UAGCCGG (DNA:RNA)
RNA: B4 RNA with A25U, G26A, A28C, A29C
DNA 1: CAATCTGAATTCCGGTCTCCC
DNA 2: TGGTGGCTACGACGGGATT
B13: CGAGUUU (DNA:RNA)
RNA: B4 RNA with A25C, G27A, A28G, A29U, G30U, G31U
DNA 1: CAATCTGAATTCCGGTCTCCC
DNA 2: TGGTGGCTACGACGGGATT
B14: AGGCAGC (DNA:RNA)
RNA: B4 RNA with A28C, G31C
DNA 1: CAATCTGAATTCCGGTCTCCC
DNA 2: TGGTGGCTACGACGGGATT
B15: AUACAGA (DNA:RNA)
RNA: B4 RNA with G26U, G27A, A28C, G31A
DNA 1: CAATCTGAATTCCGGTCTCCC
DNA 2: TGGTGGCTACGACGGGATT
B16: AUCGAAU (DNA:RNA)
RNA: B4 RNA with G26U, G27C, A28G, G30A, G31U
DNA 1: CAATCTGAATTCCGGTCTCCC
DNA 2: TGGTGGCTACGACGGGATT
B17: CGGUCUA (DNA:RNA)
RNA: B4 RNA with A25C, A28U, A29C, G30U, G31A
DNA 1: CAATCTGAATTCCGGTCTCCC
DNA 2: TGGTGGCTACGACGGGATT
B18: UAGGUAU (DNA:RNA)
RNA: B4 RNA with A25U, G26A, A28G, A29U, G30A, G31U
DNA 1: CAATCTGAATTCCGGTCTCCC
DNA 2: TGGTGGCTACGACGGGATT
B19: CCUAGCA (DNA:RNA)
RNA: B4 RNA with A25C, G26C, G27U, A29G, G30C, G31A
DNA 1: CAATCTGAATTCCGGTCTCCC
DNA 2: TGGTGGCTACGACGGGATT
B20: CGGAUAU (DNA:RNA)
RNA: B4 RNA with A25C, A29U, G30A, G31U
DNA 1: CAATCTGAATTCCGGTCTCCC
DNA 2: TGGTGGCTACGACGGGATT
B21: GACCUAA (DNA:RNA)
RNA: B1 RNA with C26A, A27C, U28C, C29U, C31A
DNA 1: CAATCTGAATTCCGGTCTCCC
DNA 2: TGGTGGCTACGACGGGATT
B22: UUACUGC (DNA:RNA)
RNA: B1 RNA with G25U, C26U, U28C, C29U, A30G
DNA 1: CAATCTGAATTCCGGTCTCCC
DNA 2: TGGTGGCTACGACGGGATT
B23: UAAGGUA (DNA:RNA)
RNA: B1 RNA with G25U, C26A, U28G, C29G, A30U, C31A
DNA 1: CAATCTGAATTCCGGTCTCCC
DNA 2: TGGTGGCTACGACGGGATT
B24: GGCAAGU (DNA:RNA)
RNA: B4 RNA with A25G, G27C, G31U
DNA 1: CAATCTGAATTCCGGTCTCCC
DNA 2: TGGTGGCTACGACGGGATT
B25: GAACUAG (DNA:RNA)
RNA: B1 RNA with C26A, U28C, C29U, C31G
DNA 1: CAATCTGAATTCCGGTCTCCC
DNA 2: TGGTGGCTACGACGGGATT
B26: GUCAUGU (DNA:RNA)
RNA: B4 RNA with A25G, G26U, G27C, A29U, G31U
DNA 1: CAATCTGAATTCCGGTCTCCC
DNA 2: TGGTGGCTACGACGGGATT
B27: ACAAUGC (DNA:RNA)
RNA: B4 RNA with G26C, G27A, A29U, G31C
DNA 1: CAATCTGAATTCCGGTCTCCC
DNA 2: TGGTGGCTACGACGGGATT
B28: GGGCGCC (DNA:RNA)
RNA: B4 RNA with A25G, A28C, A29G, G30C, G31C
DNA 1: CAATCTGAATTCCGGTCTCCC
DNA 2: TGGTGGCTACGACGGGATT
B29: CCGUGGC (DNA:RNA)
RNA: B1 RNA with G25C, A27G, C29G, A30G
DNA 1: CAATCTGAATTCCGGTCTCCC
DNA 2: TGGTGGCTACGACGGGATT
B30: GUUCGUA (DNA:RNA)
RNA: B1 RNA with C26U, A27U, U28C, C29G, A30U, C31A
DNA 1: CAATCTGAATTCCGGTCTCCC
DNA 2: TGGTGGCTACGACGGGATT
B31: CGCCGAA (DNA:RNA)
RNA: B4 RNA with A25C, G27C, A28C, A29G, G30A, G31A
DNA 1: CAATCTGAATTCCGGTCTCCC
DNA 2: TGGTGGCTACGACGGGATT

target: T1, RBFOX1 RRM; assay: EMSA; HiTS-Eq, 1 nM pool, 10 min; buffer printed only for the single-RNA assays: 10 mM Tris pH 7.5, 150 mM NaCl, 3.4 mM EDTA, 0.001% NP-40, 30 C; conditions: tags: His6 N-terminal (pET28a); label: 5' 32P
Summary of the method: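 Purified RbFox RRM, wild type or mutant, was incubated for 10 min in 50 µL with 1 nM of a 5′-radiolabelled RNA pool carrying 7 randomized nucleotides, whose flanks were annealed to DNA oligonucleotides, over a series of increasing protein concentrations. Unbound RNA was resolved on 8% native PAGE, cut out, reverse-transcribed, barcoded by PCR and sequenced on an Illumina HiSeq 2500. Relative association constants were derived from changes in read counts for each RNA species versus the control reaction and normalised to the cognate motif.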

| Binder | binding signal |
| --- | --- |
| B1 | 0.00897 KA relative to UGCAUGU |
| B2 | 0.000336 KA relative to UGCAUGU |
| B3 | 0.00751 KA relative to UGCAUGU |
| B4 | 0.0189 KA relative to UGCAUGU |
| B5 | 0.00669 KA relative to UGCAUGU |
| B6 | 0.014 KA relative to UGCAUGU |
| B7 | 0.361 KA relative to UGCAUGU |
| B8 | 0.00148 KA relative to UGCAUGU |
| B9 | 0.0184 KA relative to UGCAUGU |
| B10 | 0.0351 KA relative to UGCAUGU |
| B11 | 0.0115 KA relative to UGCAUGU |
| B12 | 0.00471 KA relative to UGCAUGU |
| B13 | 0.0135 KA relative to UGCAUGU |
| B14 | 0.0108 KA relative to UGCAUGU |
| B15 | 0.00233 KA relative to UGCAUGU |
| B16 | 0.00773 KA relative to UGCAUGU |

| Binder | binding signal |
| --- | --- |
| B17 | 0.00571 KA relative to UGCAUGU |
| B18 | 0.0126 KA relative to UGCAUGU |
| B19 | 0.00724 KA relative to UGCAUGU |
| B20 | 0.0147 KA relative to UGCAUGU |
| B21 | 0.00233 KA relative to UGCAUGU |
| B22 | 0.0154 KA relative to UGCAUGU |
| B23 | 0.0116 KA relative to UGCAUGU |
| B24 | 0.0133 KA relative to UGCAUGU |
| B25 | 0.0127 KA relative to UGCAUGU |
| B26 | 0.0129 KA relative to UGCAUGU |
| B27 | 0.00386 KA relative to UGCAUGU |
| B28 | 0.019 KA relative to UGCAUGU |
| B29 | 0.00631 KA relative to UGCAUGU |
| B30 | 0.0142 KA relative to UGCAUGU |
| B31 | 0.00918 KA relative to UGCAUGU |
